# Assay results from the supplement of paper PMC12217912.
# Some of the results follow. The full chains were built here from the parent and the listed change. Values near 0.05 are background.
# B1: TEV protease; numbered along this chain (parent)
# chain: MGESLFKGPRDYNPISSSICHLTNESDGHTTSLYGIGFGPFIITNKHLFRRNNGTLVVQSLHGVFKVKDTTTLQQHLVDGRDMIIIRMPKDFPPFPQKLKFREPQREERICLVTTNFQTKSMSSMVSDTSCTFPSGDGIFWKHWIQTKDGQCGSPLVSTRDGFIVGIHSASNFTNTNNYFTSVPKNFMELLTNQEAQQWVSGWRLNADSVLWGGHKVFMVKPEEPFQPVKEATQL
# Variants of: B1
# Assay: raw area under fraction-flipped curve 0-4 h after induction (AUC4h, not background-subtracted), DNA-recorder readout of cleavage of the substrate (dimensionless); higher = more cleavage of the substrate by the protease variant
# Details: temperature: 34 °C; time window: 0-4 h after rhamnose induction
# Experimental: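 In vivo DNA recorder in E. coli TOP10(DE3) ΔrhaA at 34 °C. Each TEVp single-site mutant (parent TEVp 0) is paired with a single-site variant of the 7-mer TEVs (canonical ENLYFQ|S). The substrate sits between flexible linkers in a Bxb1-sfGFP-TEVs-SsrA fusion, so cleavage stabilises Bxb1 and speeds flipping of a recombination array, read by NGS. The value is the raw area under the fraction-flipped curve over 0-4 h after rhamnose induction (AUC4h), with ≥20 reads per time point. It is not background-subtracted; inactive controls average about 0.047.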
# 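Also: Bxb1 expression induced with 0.2% (w/v) L-rhamnose at OD600 near 0.5, cultures sampled hourly, flipped fraction per protease–substrate barcode pair counted by paired-end Illumina sequencing.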
variant,measurement,value
MGESLFKGPRDYNPISSSICHLTNESDGHTTSLYGIGFGPFIITNKHLFRRNNGTLVVQSLHGVFKVKDTTTLQQHLVDGRDMIIIRMPKDFPPFPQKLKFREPQREERICLVTTNFQTKSMSSMVSDTSCTFPSGDGIFWKHWIQRKDGQCGSPLVSTRDGFIVGIHSASNFTNTNNYFTSVPKNFMELLTNQEAQQWVSGWRLNADSVLWGGHKVFMVKPEEPFQPVKEATQL [T147R],area with substrate ENAYFQS,0.0525
same,area with substrate ENCYFQS,0.0695
same,area with substrate ENDYFQS,0.0703
same,area with substrate ENEYFQS,0.0456
same,area with substrate ENFYFQS,0.0558
same,area with substrate ENGYFQS,0.0542
same,area with substrate ENHYFQS,0.0548
same,area with substrate ENKYFQS,0.0549
same,area with substrate ENMYFQS,0.0547
same,area with substrate ENNYFQS,0.0599
same,area with substrate ENQYFQS,0.0659
same,area with substrate ENRYFQS,0.0589
same,area with substrate ENSYFQS,0.0576
same,area with substrate ENTYFQS,0.049
same,area with substrate ENVYFQS,0.052
same,area with substrate ENYYFQS,0.0492
MGESLFKGPRDYNPISSSICHLTNESDGHTTSLYGIGFGPFIITNKHLFRRNNGTLVVQSLHGVFKVKDTTTLQQHLVDGRDMIIIRMPKDFPPFPQKLKFREPQREERICLVTTNFQTKSMSSMVSDTSCTFPSGDGIFWKHWIQFKDGQCGSPLVSTRDGFIVGIHSASNFTNTNNYFTSVPKNFMELLTNQEAQQWVSGWRLNADSVLWGGHKVFMVKPEEPFQPVKEATQL [T147F],area with substrate ENAYFQS,0.0595
same,area with substrate ENCYFQS,0.06
same,area with substrate ENDYFQS,0.0645
same,area with substrate ENEYFQS,0.0693
same,area with substrate ENMYFQS,0.0669
same,area with substrate ENNYFQS,0.0642
same,area with substrate ENQYFQS,0.0551
same,area with substrate ENRYFQS,0.0578
same,area with substrate ENSYFQS,0.0576
same,area with substrate ENTYFQS,0.0476
same,area with substrate ENVYFQS,0.059
MGESLFKGPRDYNPISSSICHLTNESDGHTTSLYGIGFGPFIITNKHLFRRNNGTLVVQSLHGVFKVKDTTTLQQHLVDGRDMIIIRMPKDFPPFPQKLKFREPQREERICLVTTNFQTKSMSSMVSDTSCTFPSGDGIFWKHWIQTKDGQCGSPLVSTRDDFIVGIHSASNFTNTNNYFTSVPKNFMELLTNQEAQQWVSGWRLNADSVLWGGHKVFMVKPEEPFQPVKEATQL [G162D],area with substrate ENAYFQS,0.08
same,area with substrate ENDYFQS,0.058
same,area with substrate ENEYFQS,0.0623
same,area with substrate ENGYFQS,0.0687
same,area with substrate ENIYFQS,0.0926
same,area with substrate ENQYFQS,0.059
same,area with substrate ENRYFQS,0.043
same,area with substrate ENSYFQS,0.0588
same,area with substrate ENTYFQS,0.0496
same,area with substrate ENVYFQS,0.0662
MGESLFKGPRDYNPISSSICHLTNESDGHTTSLYGIGFGPFIITNKHLFRRNNGTLVVQSLHGVFKVKDTTTLQQHLVDGRDMIIIRMPKDFPPFPQKLKFREPQREERICLVTTNFQTKSMSSMVSDTSCTFPSGDGIFWKHWIQTKDGQCGSPLVSTRDFFIVGIHSASNFTNTNNYFTSVPKNFMELLTNQEAQQWVSGWRLNADSVLWGGHKVFMVKPEEPFQPVKEATQL [G162F],area with substrate ENAYFQS,0.0479
same,area with substrate ENCYFQS,0.0535
same,area with substrate ENDYFQS,0.0761
same,area with substrate ENEYFQS,0.0588
same,area with substrate ENFYFQS,0.0607
same,area with substrate ENGYFQS,0.0624
same,area with substrate ENHYFQS,0.0485
same,area with substrate ENMYFQS,0.06
same,area with substrate ENNYFQS,0.0618
same,area with substrate ENPYFQS,0.0714
same,area with substrate ENSYFQS,0.0608
same,area with substrate ENTYFQS,0.0395
same,area with substrate ENVYFQS,0.0676
same,area with substrate ENWYFQS,0.0586
same,area with substrate ENYYFQS,0.066
MGESLFKGPRDYNPISSSICHLTNESDGHTTSLYGIGFGPFIITNKHLFRRNNGTLVVQSLHGVFKVKDTTTLQQHLVDGRDMIIIRMPKDFPPFPQKLKFREPQREERICLVTTNFQTKSMSSMVSDTSCTFPSGDGIFWKHWIQTKDGQCGSPLVYTRDGFIVGIHSASNFTNTNNYFTSVPKNFMELLTNQEAQQWVSGWRLNADSVLWGGHKVFMVKPEEPFQPVKEATQL [S158Y],area with substrate ENAYFQS,0.0466
same,area with substrate ENCYFQS,0.0522
same,area with substrate ENEYFQS,0.0525
same,area with substrate ENFYFQS,0.056
same,area with substrate ENGYFQS,0.0515
same,area with substrate ENIYFQS,0.0481
same,area with substrate ENNYFQS,0.0553
same,area with substrate ENQYFQS,0.0572
same,area with substrate ENRYFQS,0.0518
same,area with substrate ENSYFQS,0.0597
same,area with substrate ENTYFQS,0.0504
same,area with substrate ENVYFQS,0.0567
same,area with substrate ENYYFQS,0.0568
MGESLFKGPRDYNPISSSICHLTNESDGHTTSLYGIGFGPFIITNKHLFRRNNGTLVVQSLHGVFKVKDTTTLQQHLVDGRDMIIIRMPKDFPPFPQKLKFREPQREERICLVTTNFQTKSMSSMVSDTSCTFPSGDGIFWKHWIQTKDGQCGSPLVSTWDGFIVGIHSASNFTNTNNYFTSVPKNFMELLTNQEAQQWVSGWRLNADSVLWGGHKVFMVKPEEPFQPVKEATQL [R160W],area with substrate ENAYFQS,0.0598
same,area with substrate ENDYFQS,0.1
same,area with substrate ENQYFQS,0.0779
same,area with substrate ENRYFQS,0.072
same,area with substrate ENSYFQS,0.0833
MGESLFKGPRDYNPISSSICHLTNESDGHTTSLYGIGFGPFIITNKHLFRRNNGTLVVQSLHGVFKVKDTTTLQQHLVDGRDMIIIRMPKDFPPFPQKLKFREPQREERICLVTTNFQTKSMSSMVSDTSCTFPSGDGIFWKHWIQTKDGTCGSPLVSTRDGFIVGIHSASNFTNTNNYFTSVPKNFMELLTNQEAQQWVSGWRLNADSVLWGGHKVFMVKPEEPFQPVKEATQL [Q151T],area with substrate ENAYFQS,0.0546
same,area with substrate ENCYFQS,0.0516
same,area with substrate ENFYFQS,0.0603
same,area with substrate ENGYFQS,0.0724
same,area with substrate ENHYFQS,0.0702
same,area with substrate ENIYFQS,0.0974
same,area with substrate ENKYFQS,0.0674
same,area with substrate ENMYFQS,0.0647
same,area with substrate ENPYFQS,0.0387
same,area with substrate ENQYFQS,0.0722
same,area with substrate ENSYFQS,0.0659
same,area with substrate ENTYFQS,0.0647
same,area with substrate ENVYFQS,0.0575
same,area with substrate ENWYFQS,0.0069
same,area with substrate ENYYFQS,0.0472
MGESLFKGPRDYNPISSSICHLTNESDGHTTSLYGIGFGPFIITNKHLFRRNNGTLVVQSLHGVFKVKDTTTLQQHLVDGRDMIIIRMPKDFPPFPQKLKFREPQREERICLVTTNFQTKSMSSMVSDTSCTFPSGDGIFWKHWIQTKDGYCGSPLVSTRDGFIVGIHSASNFTNTNNYFTSVPKNFMELLTNQEAQQWVSGWRLNADSVLWGGHKVFMVKPEEPFQPVKEATQL [Q151Y],area with substrate ENAYFQS,0.0689
same,area with substrate ENCYFQS,0.0524
same,area with substrate ENDYFQS,0.0642
same,area with substrate ENEYFQS,0.0661
same,area with substrate ENHYFQS,0.058
same,area with substrate ENIYFQS,0.1
same,area with substrate ENNYFQS,0.0699
same,area with substrate ENPYFQS,0.0593
same,area with substrate ENQYFQS,0.0477
same,area with substrate ENSYFQS,0.0583
same,area with substrate ENTYFQS,0.0476
same,area with substrate ENVYFQS,0.0782
same,area with substrate ENWYFQS,0.0587
same,area with substrate ENYYFQS,0.0534
MGESLFKGPRDYNPISSSICHLTNESDGHTTSLYGIGFGPFIITNKHLFRRNNGTLVVQSLHGVFKVKDTTTLQQHLVDGRDMIIIRMPKDFPPFPQKLKFREPQREERICLVTTNFQTKSMSSMVSDTSCTFPSGDGIFWKHWIQTKDGNCGSPLVSTRDGFIVGIHSASNFTNTNNYFTSVPKNFMELLTNQEAQQWVSGWRLNADSVLWGGHKVFMVKPEEPFQPVKEATQL [Q151N],area with substrate ENAYFQS,0.082
same,area with substrate ENCYFQS,0.0628
same,area with substrate ENDYFQS,0.0601
same,area with substrate ENEYFQS,0.065
same,area with substrate ENFYFQS,0.0542
same,area with substrate ENGYFQS,0.063
same,area with substrate ENHYFQS,0.0604
same,area with substrate ENIYFQS,0.0767
same,area with substrate ENKYFQS,0.0594
same,area with substrate ENNYFQS,0.0672
same,area with substrate ENPYFQS,0.0721
same,area with substrate ENQYFQS,0.0573
same,area with substrate ENRYFQS,0.058
same,area with substrate ENSYFQS,0.0682
same,area with substrate ENTYFQS,0.072
same,area with substrate ENVYFQS,0.0628
same,area with substrate ENYYFQS,0.0499
